# Reference: PubChem BioAssay AID1347043 (National Center for Advancing Translational Sciences (NCATS), 2019)
# In all, about 76,000 compounds went through this assay and about 1,900 (2.5%) were called active. Inconclusive results, whose numbers are uncertain, are shown with a selection of clear calls. Calls follow the shape of the dose curve; as a rule, active = well fitted inhibition curve with a large enough effect; inconclusive = small, poorly fitted or top-dose-only effect; inactive = flat fitted curve, though single readings scatter. A potency beside an inconclusive call is a rough fit, not a confirmed value.
# Biological target: Luciferin 4-monooxygenase (Photinus pyralis) (UniProt P08659)
# Chain of UniProt P08659 (P08659 whole entry, looked up): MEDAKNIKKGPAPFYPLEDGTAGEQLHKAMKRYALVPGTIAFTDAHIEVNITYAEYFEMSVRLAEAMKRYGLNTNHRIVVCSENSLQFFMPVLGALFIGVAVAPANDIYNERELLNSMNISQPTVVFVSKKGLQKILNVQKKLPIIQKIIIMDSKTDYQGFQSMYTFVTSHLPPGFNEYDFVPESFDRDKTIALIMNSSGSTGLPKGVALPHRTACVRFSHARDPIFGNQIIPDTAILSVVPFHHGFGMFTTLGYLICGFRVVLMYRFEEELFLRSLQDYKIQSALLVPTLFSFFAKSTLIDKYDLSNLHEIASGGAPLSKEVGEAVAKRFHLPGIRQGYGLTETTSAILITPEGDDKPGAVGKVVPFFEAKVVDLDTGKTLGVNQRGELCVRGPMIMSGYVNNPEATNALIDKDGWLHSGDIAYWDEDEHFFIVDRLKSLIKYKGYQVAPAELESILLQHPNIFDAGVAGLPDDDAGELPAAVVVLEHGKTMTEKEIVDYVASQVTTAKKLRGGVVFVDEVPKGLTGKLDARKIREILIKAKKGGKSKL
# Experiment: Firefly luciferase inhibition profiling of diverse chemical library using quantitative high-throughput screening; also: nearly all actives have a fitted effect of over 65% in size
# Details: purified P. pyralis luciferase, luminescence, biochemical; activity change, negative = inhibition: at 115 µM (top of the series) unless noted
# Procedure, shortened: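 Luminescence read by CCD imager after adding enzyme (10nM final) to wells holding compound, titrated in qHTS. Substrates 10uM each D-luciferin and ATP; buffer 50mM Tris acetate pH 7.5, 10mM Mg acetate, Tween-20, BSA.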
# % is scaled to controls: 0 for no effect and ±100 for the full control effect; potency is read from the fitted curve at half-maximal effect; tags tell the direction and shape of the fitted curve.
Compound,Potency,"activity change, negative = inhibition"
CC(C)N1CC[C@H](c2nc3ccc(C#N)cc3[nH]2)C1,active: 39.8 µM,
COc1cccc(-c2ccc(CN3C4CCC3CN(C(=O)Nc3ccccc3F)C4)cc2)c1,"inconclusive: 44.7 µM [inhibitor, partial curve]",
Fc1ccccc1-c1nnc([C@H]2CCN(Cc3ccccc3)C2)o1,"inconclusive: 112 µM [inhibitor, partial curve]",
COc1ccc(NC(=O)O[C@@H]2CO[C@H]3[C@@H]2OC[C@@H]3NC(=O)C2CCCCC2)cc1,"inconclusive: 70.8 µM [inhibitor, partial curve]",
CCc1nc2c(c(-c3ccc(Cl)cc3)n1)CN(Cc1cccc(OC)c1)CC2,,inactive: -3.25%
Cc1nn2c(c1-c1cccnc1N1CCOCC1)N(CCC(C)C)CCC2,,inactive: -17.9% [at 172 µM]
c1ccc(-c2ccnc(NCC3OCCc4ccccc43)n2)nc1 (configuration not stated),active: 44.7 µM,
Cc1cc(C[C@@H]2COC[C@@H]2NC(=O)c2ccc(Oc3ccccc3)o2)on1,"inconclusive: 79.4 µM [inhibitor, single point]",
COc1ccc(-c2ncc3c(n2)OCCN(Cc2ccccc2)C3=O)cc1,active: 2.51 µM,
CC1(c2ccccc2)N(Cc2ncccn2)C(=O)OC12CCN(Cc1ccc(F)cc1)CC2 (configuration not stated),,inactive: -8.88%
CCS(=O)(=O)Nc1ccc(C2(C(=O)Nc3cccc(F)c3C)CCCCC2)cc1,,inactive: -3.46%
COc1ccc(-c2noc([C@@H]3Cc4nc[nH]c4CN3C(=O)CC(C)(C)CC(=O)O)n2)cc1,"inconclusive: 44.7 µM [inhibitor, partial curve]",
CN(C)c1cccc(C(=O)N2CCCN(c3cc(-c4ccc(F)cc4)[nH]n3)CC2)c1,active: 22.4 µM,
COc1cccc(CCC2CCCN(C(=O)C3CCCC3)C2)c1 (configuration not stated),"inconclusive: 56.2 µM [inhibitor, partial curve, poor fit]",
CCOc1nccn2c(-c3ccc(CNc4ccc(OC)nc4)cc3)cnc12,active: 22.4 µM,
Cc1cccc(NC(=O)c2ccc(CN3C(=O)NC4(CCOCC4)C3=O)cc2)c1,"inconclusive: 44.7 µM [inhibitor, partial curve]",
Cc1cn2nc(C(=O)Nc3ccc(N(C)C)cc3)cc2c(N2CCSCC2)n1,"inconclusive: 20 µM [inhibitor, full curve]",
COc1ccc(NC(=O)CN2C(=O)NC(c3ccccc3Cl)C3=C2COC3=O)cc1 (configuration not stated),"inconclusive: 56.2 µM [inhibitor, partial curve]",
Cc1ccc(-c2nc(C(=O)N3CCN(c4ccc(Cl)cc4)CC3)no2)cc1,"inconclusive: 11.2 µM [inhibitor, partial curve, poor fit]",
O=C(Nc1ccccn1)[C@@H]1C[C@@H](c2ccc(F)cc2)N([S+](=O)([O-])c2ccccc2)C1,,inactive: -3.68% [at 172 µM]
COc1ccc(Cc2nc3nccc(-c4ccc(F)cc4)n3n2)cc1,"inconclusive: 50.1 µM [inhibitor, partial curve]",
O=C(c1cc(Cl)ccc1F)N1CCCC(n2cc(-c3nc(-c4ccccc4)no3)nn2)C1 (configuration not stated),"inconclusive: 35.5 µM [inhibitor, full curve]",
O=C(c1ccc2ccccc2n1)N1CCC(n2cc(-c3nc(-c4ccccc4)no3)nn2)C1 (configuration not stated),active: 28.2 µM,

Compound,Potency,"activity change, negative = inhibition"
Cc1nn(-c2ccccc2)c(C)c1[C@@H]1C=C[C@@H](NC(=O)c2ccc(N(C)C)cc2)C1,"inconclusive: 39.8 µM [inhibitor, partial curve]",
COCCNC(=O)[C@@H]1Cc2cn(Cc3ccncc3)c3cccc(c23)[C@H](CC(C)C)N1,,inactive: -2.94% [at 172 µM]
O=C(Nc1cccc(-c2ccc(N3CCOCC3)nn2)c1)Nc1ccc(F)cc1F,active: 2 µM,
CCO[C@H]1COC[C@@H]1NC(=O)c1csc(-c2cccs2)n1,"inconclusive: 50.1 µM [inhibitor, partial curve]",
COc1ccccc1-c1ccc2ncc(Nc3cc(F)cc(N4CCOCC4)c3)n2n1,"inconclusive: 35.5 µM [inhibitor, full curve]",
CCc1ccc(NC(=O)NCCc2noc(C)n2)cc1,"inconclusive: 56.2 µM [inhibitor, partial curve, poor fit]",
COc1ccccc1OCc1cc(C(=O)NC[C@H]2C[C@H]3C=C[C@H]2C32CC2)n[nH]1,"inconclusive: 44.7 µM [inhibitor, partial curve]",
CCN1C(=O)CCc2cc(NC(=O)c3cccc(C#N)c3)ccc21,"inconclusive: 50.1 µM [inhibitor, partial curve]",
O=C(CCCc1ccccc1)N1CCC2(CC1)CC(O)CCO2 (configuration not stated),active: 5.62 µM,
COc1cccc(CNC(=O)c2ccc(-c3ccc(N4CCSCC4)nc3)cc2)c1,"inconclusive: 44.7 µM [inhibitor, partial curve]",
COCc1nc2nc(-c3ccccc3)c(-c3ccccc3OC)cc2n1C,,inactive: 7.1% [at 172 µM]
O=[S+]([O-])(c1cccc(C(F)(F)F)c1)N1CC(CNc2cccnc2)C2(CN(c3ccccc3)C2)C1 (configuration not stated),,inactive: -0.111%
COc1ccc(-c2ccc3nc(-c4ccc(C)c(F)c4)oc3c2)c(OC)c1OC,"inconclusive: 39.8 µM [inhibitor, partial curve, poor fit]",
Cc1nc(CC2CCN(C(=O)Nc3ccc4c(c3)OCCO4)CC2)n[nH]1,active: 44.7 µM,
O=C(N[C@H]1CCN2C(=O)c3cc(-c4cccs4)ccc3NC(=O)[C@H]12)C1CCCC1,"inconclusive: 126 µM [inhibitor, single point]",
O=C(Nc1ccc(Cl)cc1Cl)c1ccc2cncn2c1,"inconclusive: 17.8 µM [inhibitor, partial curve]",
COCCNC(=O)[C@H]1C[C@H](Oc2ccccc2)CN1CC1CC1,,inactive: 13.5%
CS(=O)(=O)c1ccc(CN2CCN3C(=O)N(Cc4ccccn4)C[C@H]3C2)cc1,,inactive: -4.65% [at 172 µM]
CCC[C@H]1CN(S(=O)(=O)c2cnn(CCC)c2)C[C@@H]1N,,inactive: 4.04%
COc1ccc(C2Cn3nnc(C(=O)N4CCC(C(=O)NCc5cccc(F)c5)CC4)c3CO2)cc1 (configuration not stated),"inconclusive: 28.2 µM [inhibitor, partial curve]",
Cc1ccc(NC(=O)N2CCC(CCNC(=O)c3ccsc3)CC2)cc1,"inconclusive: 39.8 µM [inhibitor, partial curve, poor fit]",
CN(C(=O)Nc1ccccc1)C1CCOc2ccccc21 (configuration not stated),"inconclusive: 56.2 µM [inhibitor, partial curve]",
CCc1ccc(OCC(=O)c2ccc3c(c2)N(CCCC(=O)NCC2CCCO2)C(=O)CO3)cc1 (configuration not stated),"inconclusive: 44.7 µM [inhibitor, partial curve]",

Compound,Potency,"activity change, negative = inhibition"
COc1ccc(C(=O)N[C@H]2CO[C@H]3[C@@H]2OC[C@@H]3Nc2nccc(-c3cccs3)n2)cc1,"inconclusive: 50.1 µM [inhibitor, partial curve]",
COc1ccc(OCC(=O)N2CCC3(CC2)N=C(c2ccc(C)cc2)NO3)cc1,,inactive: -1.35%
O=C(NCCc1ccccc1)c1noc(-c2ccc(F)cc2)n1,"inconclusive: 39.8 µM [inhibitor, partial curve, poor fit]",
CC(C)CCN1C[C@@H](CO)[C@H](c2nc(-c3cccnc3)no2)C1,"inconclusive: 56.2 µM [inhibitor, partial curve]",
O=C(C1CC1)N1CCC2(CC1)CCN(CCc1ccccc1)c1ccccc1O2,"inconclusive: 44.7 µM [inhibitor, partial curve]",
CSc1cccc(NC(=O)c2ccc3c(c2)N(C)C2CCCCCN2C3=O)c1 (configuration not stated),"inconclusive: 15.8 µM [inhibitor, partial curve]",
O=C(Nc1cccc(F)c1)N1Cc2[nH]cnc2C[C@H]1c1nc(-c2ccc(Cl)cc2)no1,active: 39.8 µM,
O=C(NCc1ccccc1F)c1noc(-c2ccc3c(c2)OCO3)n1,active: 31.6 µM,
CC1(CNc2ccccc2)COc2ccc(C(=O)NCCOc3ccccc3)cc2N1 (configuration not stated),"inconclusive: 14.1 µM [inhibitor, full curve]",
Cc1noc(-c2cn(C3CCCN(C(=O)c4cccc5[nH]ccc45)C3)nn2)n1 (configuration not stated),"inconclusive: 89.1 µM [inhibitor, single point]",
O=C(NCC1CCN(c2cc(-c3ccc(Cl)cc3)[nH]n2)CC1)c1ccc2nc[nH]c2c1,"inconclusive: 28.2 µM [inhibitor, partial curve]",
O=C(NCC1CCCO1)c1ccc(-c2ccc(N3CCCCC3)nc2)cc1 (configuration not stated),"inconclusive: 14.1 µM [inhibitor, partial curve]",
Cc1nn(-c2ccccn2)c(C)c1[C@@H]1C=C[C@@H](NC(=O)c2cccs2)C1,"inconclusive: 126 µM [inhibitor, single point]",
CCc1nc(-c2ccc(OC3CCN(CCc4ccccc4)C3)cc2)no1 (configuration not stated),"inconclusive: 44.7 µM [inhibitor, partial curve]",
CCCN(C)c1nccnc1OC1CCN(C(=O)c2ccoc2)C1 (configuration not stated),active: 14.1 µM,
CN(C)C(=O)c1cccc(-c2cc(F)c3nc(N)sc3c2)c1,"inconclusive: 44.7 µM [inhibitor, partial curve]",
COc1ccc(-c2cn3c(n2)CO[C@@H](CNCc2ccc(Cl)cc2)C3)cc1,active: 63.1 µM,
O=C(Cc1ccccc1Cl)N1CC(c2nc(Cc3ccccc3)no2)C1,"inconclusive: 56.2 µM [inhibitor, partial curve]",
COc1ccc(-c2cc3c(cn2)CN(Cc2cccnc2)CCN3)cc1OC,active: 5.62 µM,
CN(C)c1cccc(C(=O)Nc2ccc3c(N4CCOCC4)ncnc3c2)c1,active: 12.6 µM,
Cc1cc(S(=O)(=O)N2CCC(Oc3ncccc3C(=O)N3CCOCC3)C2)ccc1F (configuration not stated),,inactive: 2.95%
